Source: the supplement of paper PMC7826260
The list shows a part of the results. Viral Rep nickase domains cut single-stranded DNA in vitro (3 µM enzyme, 1 h, 37 °C); shown is the middle of each 90-letter strand. Numbers give uncut DNA relative to the enzyme-free pool, as log2; more negative means more cut, near 0 not cut, and no call is made. Because reads are shares of a total, they shift together; where an enzyme cuts many sequences, the uncut ones exceed 0.

Assays:
Test in all cases: uncleaved DNA left, log2 of reads against the no-enzyme library (log2 ratio); higher = less cleavage (more negative = more Rep cleavage of the k-mer); sequences stand for … in CTCGTCCG…ACCGGAGA
[1] = test system: T1, Rep nickase domain of Muscovy duck circovirus
T1 sequence (Rep 1-111, printed without the tag): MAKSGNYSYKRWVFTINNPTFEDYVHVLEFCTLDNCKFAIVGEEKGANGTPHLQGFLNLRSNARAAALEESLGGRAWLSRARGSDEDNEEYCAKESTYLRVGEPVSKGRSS
Method: (§1)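 A pool of 90-nt single-stranded DNAs with seven random bases just before the constant AC of the nick site (name = the seven bases) was cut by 3 µM recombinant His6-SUMO-tagged Rep nickase domain (300 nM DNA, 50 mM HEPES pH 8.0, 50 mM NaCl, 1 mM MnCl2, 1 h, 37 °C, three replicates). Uncut DNA was amplified and sequenced.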

[2] = test system: T2, Rep nickase domain of banana bunchy top virus
T2 sequence (Rep 1-94, printed without the tag): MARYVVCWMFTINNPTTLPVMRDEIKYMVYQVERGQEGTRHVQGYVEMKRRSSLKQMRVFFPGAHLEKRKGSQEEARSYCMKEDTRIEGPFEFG
Method: as §1

[3] = test system: T3, Rep nickase domain of cabbage leaf curl virus
T3 sequence (Rep 1-116, printed without the tag): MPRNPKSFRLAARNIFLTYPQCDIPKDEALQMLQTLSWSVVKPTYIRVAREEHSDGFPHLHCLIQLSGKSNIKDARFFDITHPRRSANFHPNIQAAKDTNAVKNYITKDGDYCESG
Method: as §1

[4] = test system: T4, Rep nickase domain of chickpea chlorotic dwarf virus
T4 sequence (Rep 1-124, printed without the tag): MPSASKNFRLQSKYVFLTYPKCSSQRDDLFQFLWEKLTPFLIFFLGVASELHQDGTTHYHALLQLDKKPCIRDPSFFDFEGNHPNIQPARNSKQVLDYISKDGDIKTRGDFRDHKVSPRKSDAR
Method: as §1

[5] = test system: T5, Rep nickase domain of faba bean necrotic yellows virus
T5 sequence (Rep 1-98, printed without the tag): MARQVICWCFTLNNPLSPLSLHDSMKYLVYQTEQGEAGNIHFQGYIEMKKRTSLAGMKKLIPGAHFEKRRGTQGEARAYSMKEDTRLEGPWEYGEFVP
Method: as §1

[6] = test system: T6, Rep nickase domain of maize striate mosaic virus
T6 sequence (Rep 1-117, printed without the tag): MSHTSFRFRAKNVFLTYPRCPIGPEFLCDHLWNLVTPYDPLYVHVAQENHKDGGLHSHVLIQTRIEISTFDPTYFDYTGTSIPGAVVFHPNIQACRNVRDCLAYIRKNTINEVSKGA
Method: as §1

[7] = test system: T7, Rep nickase domain of porcine circovirus 2
T7 sequence (Rep 2-116, printed without the tag): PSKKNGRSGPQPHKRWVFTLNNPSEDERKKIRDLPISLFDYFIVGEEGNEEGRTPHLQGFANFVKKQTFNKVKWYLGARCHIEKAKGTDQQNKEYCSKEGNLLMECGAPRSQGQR
Method: as §1

[8] = test system: T8, Rep nickase domain of tomato yellow leaf curl virus
T8 sequence (Rep 1-136, printed without the tag): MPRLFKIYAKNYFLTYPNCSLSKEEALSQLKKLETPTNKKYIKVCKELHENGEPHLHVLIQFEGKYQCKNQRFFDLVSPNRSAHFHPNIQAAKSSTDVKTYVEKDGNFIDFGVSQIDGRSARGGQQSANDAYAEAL
Method: as §1

[9] = test system: T9, Rep nickase domain of wheat dwarf virus
T9 sequence (Rep 1-137, printed without the tag): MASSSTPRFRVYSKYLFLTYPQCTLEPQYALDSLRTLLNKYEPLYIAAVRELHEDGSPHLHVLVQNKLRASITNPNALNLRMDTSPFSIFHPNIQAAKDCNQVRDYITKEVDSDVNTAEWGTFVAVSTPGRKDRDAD
Method: as §1

Sequence | uncleaved DNA left (log2) [1] | uncleaved DNA left (log2) [2] | uncleaved DNA left (log2) [3] | uncleaved DNA left (log2) [4] | uncleaved DNA left (log2) [5] | uncleaved DNA left (log2) [6] | uncleaved DNA left (log2) [7] | uncleaved DNA left (log2) [8] | uncleaved DNA left (log2) [9]
ACGATTT | -0.0883 | -0.159 | -0.216 | -2.43 | -0.0896 | -0.445 | -0.355 | -0.106 | -0.0237
TTAAATG | 0.0959 | -0.00443 | -0.385 | -0.628 | -0.00126 | -1 | 0.17 | 0.00768 | -0.0365
TGAGCCT | -0.00969 | -0.0282 | 0.154 | -0.316 | 0.0936 | 0.365 | -0.0875 | -0.0997 | 0.0117
TGCACTG | -0.116 | -0.0774 | -0.0564 | 0.516 | -0.107 | 1.64 | 0.0347 | -0.0981 | -0.0294
GTACCTC | -0.0348 | -0.00316 | 0.298 | 0.625 | -0.0857 | 1.33 | -0.0243 | 0.00706 | 0.0109
ACCTGGG | -0.0764 | -0.0345 | -0.563 | 0.09 | -0.0224 | -0.555 | -0.0223 | -0.0231 | -0.048
GCGGAAT | 0.141 | -0.027 | 0.741 | 1.69 | -0.0332 | 2.02 | 0.0929 | 0.099 | 0.178
TGACCCG | 0.124 | 0.108 | -0.149 | 0.199 | 0.143 | -0.543 | 0.011 | 0.0661 | 0.0756
GTGGCTT | 0.111 | 0.0141 | 0.689 | 1.42 | 0.0284 | 2.07 | 0.0337 | 0.00265 | 0.00488
TCGGAAT | -0.00475 | 0.0285 | 0.403 | 1.41 | -0.149 | 1.58 | 0.173 | -0.0192 | 0.038
GGTGTTG | -0.0984 | -0.181 | 0.0423 | 0.27 | 0.00907 | 0.289 | 0.0733 | -0.0536 | -0.0326
CTCGTAC | -0.0731 | 0.0513 | -0.00113 | -0.804 | 0.131 | -0.668 | 0.0853 | 0.0819 | -0.0453
CCGTATT | -2.8 | -2.62 | -2.1 | -1.93 | -2.37 | -0.655 | -3.07 | 0.0916 | -2.28
CAGGGAA | -0.0377 | 0.038 | 0.316 | 1.13 | -0.0796 | 1.31 | 0.127 | 0.0255 | -0.00936
AGCCGCC | -0.134 | -0.0134 | 0.0428 | 0.11 | 0.0105 | 0.126 | 0.0125 | -0.0554 | -0.0109
TCAACTG | 0.038 | -0.00988 | 0.152 | 0.545 | 0.0478 | 1.3 | 0.135 | -0.058 | 0.0789
GTTTAAG | -0.0114 | -0.0425 | -0.288 | -0.37 | -0.0862 | -0.886 | 0.0807 | 0.0414 | -0.0634
TCCCCAT | 0.163 | 0.104 | 0.309 | -0.388 | 0.0867 | -0.231 | -0.0272 | 0.208 | 0.129
CCATTCC | -0.11 | -0.129 | -0.25 | -0.164 | -0.195 | -0.674 | -0.00987 | -0.00826 | 0.0352
GCGAACG | 0.0605 | 0.0221 | -0.187 | -0.131 | 0.0267 | -0.437 | 0.0604 | 0.00482 | -0.152
CATATTC | 0.0785 | 0.0337 | -0.0892 | -0.2 | 0.0258 | -0.832 | 0.0992 | 0.0739 | 0.0482
GGAAGCT | 0.192 | 0.144 | 0.514 | 1.11 | 0.139 | 1.38 | 0.201 | 0.165 | 0.209
CCGCCTT | -0.0595 | -0.145 | 0.0116 | -1.77 | -0.125 | -0.267 | -0.226 | -0.144 | -0.0988
CGTTGCA | 0.0189 | -0.00527 | -0.776 | -0.516 | 0.0635 | -1.02 | 0.0786 | 0.118 | -0.146
TGCAGAC | -0.0486 | -0.0784 | 0.101 | 0.444 | -0.0505 | 0.201 | 0.0775 | -0.103 | -0.09
GTTCTTG | 0.0688 | -0.0258 | 0.214 | 0.36 | 0.0552 | 0.856 | -0.022 | 0.169 | 0.0243
GAGACTA | 0.0499 | 0.112 | 0.643 | 1.85 | 0.00149 | 2.13 | 0.243 | 0.0968 | 0.243
CTCTCAG | 0.0807 | -0.00209 | -0.802 | -0.505 | 0.0544 | -0.936 | 0.172 | -0.0198 | -0.0645
GGGGGCA | 0.054 | 0.139 | 0.97 | 1.89 | -0.0425 | 2.29 | 0.202 | 0.0863 | 0.136
GATACCA | -0.0179 | 0.0473 | 0.115 | 0.528 | 0.0755 | 0.771 | 0.133 | -0.102 | 0.131
